Measured values published in the supplement of paper PMC10338343.
± gives the standard deviation. The list shows a part of the results, in another mix than the full data.

System: MIWI (PIWIL1) piRISC loaded with piRNA #1 (30 nt)
Test: pre-steady-state target cleavage rate (min^-1); MIWI and MILI are mouse PIWI proteins and EfPiwi is from a freshwater sponge; tags in brackets are library labels; higher = faster piRNA-guided slicing of the target
Conditions: guide: piRNA #1 5'p-UGAGGUAGUAGGUUGUAUAGUAUCCAGAGG; auxiliary factor: 500 nM mouse GTSF1
In short: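 In this Cleave-'n-Seq assay, uncleaved targets were sequenced and normalised to depth and to weakly complementary targets. They came from a transcribed, DNA-blocked target RNA library […] mixed with 1 nM active affinity-purified piRISC carrying one synthetic guide, with or without 500 nM GTSF1 partner protein, in HEPES–potassium acetate buffer at 33 °C for 0–8 or 0–960 min. After three trials were pooled and k3 was capped at 0.0001 min^-1, the pre-steady-state cleavage rate was obtained from a burst-and-steady-state fit.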
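Also: 1 nM active piRISC with 0.1 nM target library at 33 °C single turnover.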

GGAGUGGAUACUAUACAAGCUACAACCUCA
pre-steady-state target cleavage rate: 0.583 ± 0.043

GCUCUGGAUACUAUACAACGUACUACCUGA
pre-steady-state target cleavage rate: 0.623 ± 0.056

GGAGACCUAUGUAUACAACCUACUAGCACA
pre-steady-state target cleavage rate: 0.00244 ± 0.0019

CCUCUGGAUACUAUACAACCUACUACCUAA
pre-steady-state target cleavage rate: 1.9 ± 0.1

GCUCUGGAUACUAUACAUCCUACUACCUGA
pre-steady-state target cleavage rate: 0.939 ± 0.11

GCUCUGGAUACUAUUGAACCUACUACCUCA
pre-steady-state target cleavage rate: 1.12 ± 0.088
